In PubChem BioAssay (NCATS):
This list was built around the results that the source calls inconclusive (neither active nor inactive); the mix of calls is not that of the screen. For some assays here: Where the call is inconclusive, the potency comes from a doubtful curve fit. For some assays here: A note “side channel” means that the fit belongs to a control or component signal, not to the main read-out. Activity calls are given as the source filed them. Unless noted, calls come from the whole dose curve; as a rule, active = well fitted curve in either direction with a large enough effect (not every such curve was filed as active); inconclusive = small, poorly fitted or top-dose-only effect, or another doubt; inactive = flat fitted curve, though single readings scatter.

Experiments:
[1] = AP1 Signaling Pathway (AID 357); conditions: ME-180 AP-1-bla reporter, EGF-induced, beta-lactamase ratio, 5 h; at 17.2 µM (top of the series) unless noted;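 note: ME-180 reporter cells stimulated with EGF at its EC50 level; top concentration of the series differs between compounds; % is set by controls: 0 for no effect and ±100 for the full control effect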
Method in brief: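 AP-1-bla ME-180 cells, Opti-MEM + 0.5% dialyzed FBS, plated overnight 37 °C. Cpd titration + EC50 EGF, 5 h 37 °C. CCF4 2.5 h RT; ex 405, em 460/530 ratio → %activity, AC50.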

[2] = NFAT Signaling Pathway (AID 444); conditions: Jurkat NFAT-bla M1, carbachol, beta-lactamase ratio, 5 h; at 17.2 µM (top of the series) unless noted;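 note: carbachol stimulus at about its EC50 of 1 µM final; % is set by controls: 0 for no effect and ±100 for the full control effect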
Method in brief: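 Read-out: CCF4 FRET ratio (460 nm/530 nm) after 1 h RT dye loading, used for %activity and AC50 from titration series. Cells: Jurkat NFAT-β-lactamase/M1 line, treated with compound plus 1 uM carbachol for 5 h, 37 °C.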

[3] = molecular target: Mitogen-activated protein kinase 10 (Mus musculus) (UniProt Q61831); test: JNK3 AlphaScreen Assay (AID 530); conditions: JNK3 lysate, c-Jun phosphorylation; activity change, negative = inhibition: at 57.1 µM (top of the series);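 note: kinase came from lysate of stimulated human HepG2 cells; signal reports phosphorylation of biotinylated GST-cJun 1-79 at Ser73 with 10 µM ATP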; note: potency is the fitted concentration of half-maximal effect; for activity change, negative = inhibition: % is set by controls: 0 for no effect and ±100 for the full control effect
Method in brief: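 Compound titrations were preincubated 15 minutes at room temperature with substrate, antibody and pre-activated JNK3-containing HepG2 lysate. Reactions were started with 10 uM ATP and stopped with EDTA-containing bead buffer for AlphaScreen detection.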

[4] = qHTS Assay for Identification of Small Molecule Agonists for Hypoxia Response Element Signaling Pathway (AID 914; active = well fitted activation curve with a large enough effect in the signal ratio, with a control signal flat, not every such curve was filed as active; inconclusive = small, poorly fitted or top-dose-only effect, or effect the other way, or a change in a side signal; the % refers to the signal ratio; note: potency is the fitted concentration of half-maximal effect; for activation: top concentration of the series differs between compounds; % of control where 0% means no effect); conditions: ME-180 (cervical carcinoma) HRE-bla reporter, beta-lactamase ratio, CoCl2, 17 h; activation: hits give high values
Method in brief: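 HRE-bla ME-180 cells with beta-lactamase reporter under hypoxia response element, compounds with EC50 CoCl2 for 17 hours at 37 C. CCF4 substrate, 460nm/530nm emission ratio gave %Activity; AC50 from titration series.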

[5] = qHTS Assay for Identification of Small Molecule Antagonists for NFkB Signaling Pathway (AID 895; active = well fitted inhibition curve with a large enough effect in the signal ratio, with a control signal flat, not every such curve was filed as active; inconclusive = small, poorly fitted or top-dose-only effect, or effect the other way, or a change in a side signal; the % refers to the signal ratio; note: potency is the fitted concentration of half-maximal effect); conditions: NFkB beta-lactamase reporter cells, FRET ratio 460/530, stimulated with 10 pM TNF alpha; activity change, negative = inhibition: at 38.3 µM (top of the series)
Method in brief: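 Beta-lactamase reporter read-out (460 and 530 nm emission ratio, 405 nm excitation, 2 hrs substrate loading RT) after 5 hr stimulation with 10 pM TNF alpha in compound-treated NFkB-bla ME-180 cells in low-serum medium.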

[6] = qHTS Assay for Identification of Small Molecule Antagonists for Thrombopoietin (TPO) Signaling Pathway (AID 918; active = well fitted curve in the direction sought with a large enough effect; inconclusive = small, poorly fitted or top-dose-only effect, or another doubt; inactive = no such curve, though single readings can be large; an effect the other way counts as inactive or inconclusive; note: nearly all actives have a fitted effect of over 60% in size); conditions: TPO-dependent cell signaling reporter, antagonist mode; activity change, negative = inhibition: at 38.5 µM (top of the series)
Method in brief: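 Ba/F3 (murine, hTPO-R, GPIIb-luc reporter); overnight IL-3 withdrawal; cpd + TPO 26 pM final (EC50); 24 h 37 C/5% CO2; Steadylite luminescence after 10 min RT.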

[7] = molecular target: Muscarinic acetylcholine receptor M1 (Rattus norvegicus) (UniProt P08482); test: qHTS Assay for Antagonists of Acetylcholine Muscarinic M1 Receptor: Kinetic Measurement of Intracellular Calcium Response (AID 943; active = well fitted curve in the direction sought with a large enough effect; inconclusive = small, poorly fitted or top-dose-only effect, or another doubt; inactive = no such curve, though single readings can be large; an effect the other way counts as inactive or inconclusive; note: nearly all actives have a fitted effect of over 75% in size; note: potency is the fitted concentration of half-maximal effect;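 for activity change, negative = inhibition: Fluo-4 calcium signal as peak divided by basal fluorescence over 4 min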)
UniProt P08482, sequence (P08482 whole entry, looked up): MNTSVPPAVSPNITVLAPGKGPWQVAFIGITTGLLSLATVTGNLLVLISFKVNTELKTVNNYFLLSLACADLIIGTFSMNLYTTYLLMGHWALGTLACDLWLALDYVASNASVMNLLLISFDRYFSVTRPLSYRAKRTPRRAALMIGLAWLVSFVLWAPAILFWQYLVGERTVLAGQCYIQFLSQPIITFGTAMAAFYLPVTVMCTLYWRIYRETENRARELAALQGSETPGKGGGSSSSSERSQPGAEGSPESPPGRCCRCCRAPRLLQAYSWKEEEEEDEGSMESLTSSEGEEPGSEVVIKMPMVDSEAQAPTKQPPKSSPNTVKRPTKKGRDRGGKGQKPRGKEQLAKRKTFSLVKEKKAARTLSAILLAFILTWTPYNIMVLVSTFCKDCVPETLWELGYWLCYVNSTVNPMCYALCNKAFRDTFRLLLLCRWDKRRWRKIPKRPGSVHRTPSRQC
Method in brief: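 Rat M1-CHO cells, 2000/well, overnight → Fluo-4 no-wash dye with probenecid, 1 h 37C → compound 10 min, room temp → basal read 6 s → carbachol EC80 (100 nM) → 4 min kinetic read; peak/basal.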

[8] = molecular target: Muscarinic acetylcholine receptor M1 (Rattus norvegicus) (UniProt P08482); test: qHTS Assay for Antagonists of Acetylcholine Muscarinic M1 Receptor: Measurement of IP-One Response (AID 944; active = well fitted curve in the direction sought with a large enough effect; inconclusive = small, poorly fitted or top-dose-only effect, or another doubt; inactive = no such curve, though single readings can be large; an effect the other way counts as inactive or inconclusive; note: potency is the fitted concentration of half-maximal effect; nearly all actives have a fitted effect of over 75% in size)
[9] = molecular target: 3',5'-cyclic-AMP phosphodiesterase 4B (Homo sapiens) (UniProt Q07343); test: qHTS Assay for Inhibitors of PDE-IV (AID 607; active = well fitted activation curve with a large enough effect in the main read-out, with a control signal flat, not every such curve was filed as active; inconclusive = small, poorly fitted or top-dose-only effect, or effect the other way, or a change in a side signal; note: potency is the fitted concentration of half-maximal effect; for activation (PDE inhibition): % of control where 0% means no effect); conditions: HEK293 ACTOne CNG channel cells, membrane potential fluorescence; activation (PDE inhibition): at 22.9 µM (top of the series)
UniProt Q07343, sequence (Q07343 whole entry, looked up): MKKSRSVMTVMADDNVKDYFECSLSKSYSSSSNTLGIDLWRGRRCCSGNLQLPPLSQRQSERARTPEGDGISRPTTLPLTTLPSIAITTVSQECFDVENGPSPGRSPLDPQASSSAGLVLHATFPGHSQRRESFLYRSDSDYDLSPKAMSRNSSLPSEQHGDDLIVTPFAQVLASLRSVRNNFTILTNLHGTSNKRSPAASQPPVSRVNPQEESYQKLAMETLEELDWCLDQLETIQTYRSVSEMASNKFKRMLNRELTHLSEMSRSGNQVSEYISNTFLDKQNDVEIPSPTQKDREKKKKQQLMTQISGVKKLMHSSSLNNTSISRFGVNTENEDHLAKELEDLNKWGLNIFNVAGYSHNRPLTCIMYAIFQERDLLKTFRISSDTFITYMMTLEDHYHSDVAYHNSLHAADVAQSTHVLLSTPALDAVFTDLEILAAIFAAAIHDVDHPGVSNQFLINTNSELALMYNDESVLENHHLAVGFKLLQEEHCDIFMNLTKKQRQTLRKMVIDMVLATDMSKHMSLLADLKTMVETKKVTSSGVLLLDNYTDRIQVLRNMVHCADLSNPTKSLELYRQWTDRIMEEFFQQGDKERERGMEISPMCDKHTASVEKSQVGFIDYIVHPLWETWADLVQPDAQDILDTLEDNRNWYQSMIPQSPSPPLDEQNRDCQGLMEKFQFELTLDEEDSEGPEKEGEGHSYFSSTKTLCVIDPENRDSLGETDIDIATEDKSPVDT
Method in brief: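 Live HEK293 cells with a modified cyclic nucleotide-gated (CNG) channel report intracellular cAMP via membrane-potential dye fluorescence (ex 535/em 590 nm). Endogenous PDE-IV was targeted. Compounds were tested at up to 22.9 uM final; RO 20-1724 100 uM served as control.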

[10] = molecular target: Cytochrome P450 2C9 (Homo sapiens) (UniProt P11712); test: qHTS Assay for Inhibitors and Substrates of Cytochrome P450 2C9 (AID 883; active = well fitted curve in the direction sought with a large enough effect; inconclusive = small, poorly fitted or top-dose-only effect, or another doubt; inactive = no such curve, though single readings can be large; an effect the other way counts as inactive or inconclusive; note: potency is the fitted concentration of half-maximal effect; nearly all actives have a fitted effect of over 60% in size); conditions: recombinant CYP2C9, luciferin-H luminescence, 60 min; activity change, negative = inhibition: at 57.1 µM (top of the series)
UniProt P11712, sequence (P11712 whole entry, looked up): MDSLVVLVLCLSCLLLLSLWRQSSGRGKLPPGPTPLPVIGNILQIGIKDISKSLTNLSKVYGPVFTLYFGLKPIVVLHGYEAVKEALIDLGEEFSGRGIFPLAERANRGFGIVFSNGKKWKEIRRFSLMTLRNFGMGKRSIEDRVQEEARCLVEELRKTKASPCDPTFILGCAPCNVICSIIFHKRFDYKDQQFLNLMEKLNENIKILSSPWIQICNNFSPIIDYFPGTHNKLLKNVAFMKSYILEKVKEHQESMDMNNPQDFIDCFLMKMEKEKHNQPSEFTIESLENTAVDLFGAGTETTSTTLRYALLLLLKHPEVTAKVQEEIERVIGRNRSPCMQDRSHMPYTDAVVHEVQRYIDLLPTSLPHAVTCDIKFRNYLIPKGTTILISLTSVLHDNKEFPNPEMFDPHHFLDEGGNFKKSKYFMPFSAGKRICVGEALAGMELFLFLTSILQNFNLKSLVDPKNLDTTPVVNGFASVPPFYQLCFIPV
Method in brief: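 Turnover of Luciferin-H (100uM, KM) by 10nM human CYP2C9 was measured over 60 min at 37C with NADPH regeneration; inhibitors and some substrates reduce luminescence. Data normalized to sulphaphenazole 57uM.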

[11] = molecular target: Cytochrome P450 2C19 (Homo sapiens) (UniProt P33261); test: qHTS Assay for Inhibitors and Substrates of Cytochrome P450 2C19 (AID 899; active = well fitted curve in the direction sought with a large enough effect; inconclusive = small, poorly fitted or top-dose-only effect, or another doubt; inactive = no such curve, though single readings can be large; an effect the other way counts as inactive or inconclusive; note: potency is the fitted concentration of half-maximal effect; nearly all actives have a fitted effect of over 60% in size)
UniProt P33261, sequence (P33261 whole entry, looked up): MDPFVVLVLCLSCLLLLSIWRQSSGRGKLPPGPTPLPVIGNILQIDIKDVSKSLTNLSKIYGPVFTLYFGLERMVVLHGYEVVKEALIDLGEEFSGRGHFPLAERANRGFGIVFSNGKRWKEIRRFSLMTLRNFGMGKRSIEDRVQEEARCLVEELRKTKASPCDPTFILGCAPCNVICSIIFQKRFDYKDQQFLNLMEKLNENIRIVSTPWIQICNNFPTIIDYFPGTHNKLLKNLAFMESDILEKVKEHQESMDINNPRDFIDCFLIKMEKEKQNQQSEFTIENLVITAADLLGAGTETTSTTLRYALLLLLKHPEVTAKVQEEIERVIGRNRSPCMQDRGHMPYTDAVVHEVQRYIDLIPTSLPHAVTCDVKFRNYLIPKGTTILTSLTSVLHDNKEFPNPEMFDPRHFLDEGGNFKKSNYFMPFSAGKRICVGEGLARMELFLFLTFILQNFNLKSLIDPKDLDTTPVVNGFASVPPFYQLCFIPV
Method in brief: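 Reactions contain 5nM enzyme, 10uM Luciferin-H EGE (KM) and 50mM KPO4; compound preincubates 10 min at 37C, NADPH regeneration starts turnover for 60 min. Luminescence after detection reagent gives activity.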

[12] = molecular target: Ubiquitin carboxyl-terminal hydrolase 1 (Homo sapiens) (UniProt O94782); test: Inhibitors of USP1/UAF1: Pilot qHTS (AID 504865; active = well fitted curve in the direction sought with a large enough effect; inconclusive = small, poorly fitted or top-dose-only effect, or another doubt; inactive = no such curve, though single readings can be large; an effect the other way counts as inactive or inconclusive; note: potency is the fitted concentration of half-maximal effect;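 note: rhodamine fluorescence freed from ubiquitin-rhodamine substrate followed over time; nearly all actives have a fitted effect of over 35% in size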)
UniProt O94782, sequence (O94782 whole entry, looked up): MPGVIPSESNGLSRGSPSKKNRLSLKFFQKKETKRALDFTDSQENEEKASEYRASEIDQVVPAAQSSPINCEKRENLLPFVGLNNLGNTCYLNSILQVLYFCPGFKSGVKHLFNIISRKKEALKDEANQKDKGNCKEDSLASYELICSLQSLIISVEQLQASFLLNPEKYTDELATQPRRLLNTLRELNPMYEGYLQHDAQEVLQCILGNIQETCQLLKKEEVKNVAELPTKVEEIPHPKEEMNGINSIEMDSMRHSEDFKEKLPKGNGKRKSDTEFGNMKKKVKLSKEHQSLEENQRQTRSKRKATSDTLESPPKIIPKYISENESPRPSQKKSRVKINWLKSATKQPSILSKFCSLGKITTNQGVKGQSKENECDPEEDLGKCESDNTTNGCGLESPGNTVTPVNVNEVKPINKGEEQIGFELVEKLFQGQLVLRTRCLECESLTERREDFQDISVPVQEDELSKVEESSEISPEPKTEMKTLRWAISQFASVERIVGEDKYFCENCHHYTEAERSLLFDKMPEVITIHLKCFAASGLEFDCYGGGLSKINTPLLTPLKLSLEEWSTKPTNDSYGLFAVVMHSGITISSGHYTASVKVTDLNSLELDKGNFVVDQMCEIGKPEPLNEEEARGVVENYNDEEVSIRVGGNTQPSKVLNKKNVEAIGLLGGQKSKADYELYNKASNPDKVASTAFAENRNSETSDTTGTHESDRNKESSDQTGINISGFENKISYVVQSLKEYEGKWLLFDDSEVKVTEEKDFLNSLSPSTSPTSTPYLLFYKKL
Method in brief: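 Enzyme-free wells gave the negative control, while test wells held 1nM USP1/UAF1 preincubated with compound for 15 min at room temperature. Ub-Rho at 150nM final started the reaction, and fluorescence at 480/540 nm was recorded kinetically.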

[13] = molecular target: Cytochrome P450 2D6 (Homo sapiens) (UniProt P10635); test: qHTS Assay for Inhibitors and Substrates of Cytochrome P450 2D6 (AID 891; active = well fitted curve in the direction sought with a large enough effect; inconclusive = small, poorly fitted or top-dose-only effect, or another doubt; inactive = no such curve, though single readings can be large; an effect the other way counts as inactive or inconclusive;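 note: luciferin methyl ether substrate demethylated by CYP2D6 with NADPH regeneration; nearly all actives have a fitted effect of over 60% in size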; note: potency is the fitted concentration of half-maximal effect; for activity change, negative = inhibition: top concentration of the series differs between compounds; % is set by controls: 0 for no effect and ±100 for the full control effect); conditions: recombinant CYP2D6, luciferin-ME EGE luminescence; activity change, negative = inhibition: at 57.1 µM (top of the series)
UniProt P10635, sequence (P10635 whole entry, looked up): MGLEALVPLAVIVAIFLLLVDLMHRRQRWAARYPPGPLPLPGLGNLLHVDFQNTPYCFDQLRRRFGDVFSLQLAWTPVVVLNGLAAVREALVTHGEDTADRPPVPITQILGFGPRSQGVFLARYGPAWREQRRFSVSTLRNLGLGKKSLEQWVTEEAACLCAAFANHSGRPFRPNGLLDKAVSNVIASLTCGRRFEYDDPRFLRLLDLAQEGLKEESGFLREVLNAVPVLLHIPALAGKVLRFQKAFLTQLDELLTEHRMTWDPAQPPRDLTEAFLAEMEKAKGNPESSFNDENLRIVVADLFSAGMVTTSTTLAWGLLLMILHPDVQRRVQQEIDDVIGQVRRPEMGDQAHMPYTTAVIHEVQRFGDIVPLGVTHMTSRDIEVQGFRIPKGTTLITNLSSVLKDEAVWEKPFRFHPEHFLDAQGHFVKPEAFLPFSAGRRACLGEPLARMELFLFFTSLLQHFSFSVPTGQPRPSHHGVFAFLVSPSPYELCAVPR
Method in brief: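 Human CYP2D6 (5 nM) with 30 uM Luciferin-ME EGE (at Km) in 100 mM KPO4, compound preincubated 10 min, then NADPH regeneration system for 60 min at room temperature. Luciferin read by luminescence; normalized to 1.43 uM quinidine.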

[14] = qHTS Assay for Identification of Small Molecule Agonists for Thrombopoietin (TPO) Signaling Pathway (AID 917; active = well fitted curve in the direction sought with a large enough effect; inconclusive = small, poorly fitted or top-dose-only effect, or another doubt; inactive = no such curve, though single readings can be large; an effect the other way counts as inactive or inconclusive; note: potency is the fitted concentration of half-maximal effect); conditions: TPO signaling pathway reporter cells, agonist qHTS, stimulated with TPO at its EC50; activity, positive = activation: at 38.5 µM (top of the series)
Method in brief: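 IL-3-dependent murine pro-B Ba/F3 cells, stably transfected with human TPO receptor and GpIIb-promoter luciferase, are incubated 24 hrs at 37 C with test compound and 26 pM TPO; luciferase signal is read after 10 min at room temperature.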
Tags give direction and shape of the fitted curve or compound fluorescence and quenching.

For `O=c1c(-c2ccc(F)cc2)nc2cnc(N3CCOCC3)nc2n1CCc1ccccc1`, the activity change, negative = inhibition [1] was active: 79.3% [activator] [at 7.69 µM], the activity change, negative = inhibition [2] was active: 103% [activator] [at 7.69 µM] and the Potency [3] was inconclusive: 0.631 µM [activator, full curve, poor fit]. The Potency [4] was active: 0.501 µM.

In the case of `C[C@@H](CN1CCC(Cc2ccccc2)CC1)[C@H](O)c1ccc(O)cc1`, the activity change, negative = inhibition [1] is reported as inactive: 7.29% [at 38 µM], the activity change, negative = inhibition [2] is reported as inconclusive: -45% [inhibitor] [at 38 µM] and the Potency [3] is reported as “inactive”. For the same compound, the Potency [5] was inconclusive: 7.94 µM [activator, partial curve, poor fit], the activation [4] was inconclusive: -51.4% and the activity change, negative = inhibition [6] was inconclusive: -20.6% [phenotype inactive]. The Potency [7] was active: 5.62 µM and the Potency [8] was active: 7.08 µM.

With `CN(Cc1ccco1)c1ncnc2ccc(-c3cccnc3)cc12` the activity change, negative = inhibition [1] was inconclusive: -44% [inhibitor] [at 7.69 µM], the activity change, negative = inhibition [2] was inconclusive: 31.7% [activator] [at 7.69 µM] and the Potency [3] was “inactive”. For the same compound, the Potency [4] was inconclusive: 1 µM [inhibitor, partial curve].

In the case of `Cc1cccc(CNc2nc(-c3c(C)noc3C)nc3ccccc23)c1`, the activity change, negative = inhibition [1] is reported as inconclusive: -39.2% [inhibitor] [at 7.69 µM], the activity change, negative = inhibition [2] is reported as inconclusive: -69% [inhibitor] [at 7.69 µM] and the Potency [9] is reported as inconclusive: 12.6 µM [rising, partial curve]. The Potency [10] was inconclusive: 0.631 µM [inhibitor, single point], the Potency [11] was inconclusive: 3.16 µM [inhibitor, full curve, poor fit] and the Potency [4] was inconclusive: 2.51 µM [inhibitor, single point]. For the same compound, the Potency [12] was inconclusive: 10 µM [inhibitor, full curve].

With `Cc1cc(C)c(/C=C2/C(=O)Nc3ccccc32)[nH]1` the activity change, negative = inhibition [1] was inconclusive: 30.2% [activator] [at 38 µM], the activity change, negative = inhibition [2] was inconclusive: -36.1% [inhibitor] [at 38 µM] and the activity change, negative = inhibition [3] was inconclusive: 12.5%. For the same compound, the Potency [10] was inconclusive: 2.51 µM [inhibitor, full curve, poor fit], the Potency [13] was inconclusive: 0.398 µM [inhibitor, partial curve, poor fit] and the activity change, negative = inhibition [6] was inconclusive: 24.5% [phenotype inactive]. For the same compound, the Potency [7] was “inactive” and the Potency [8] was inconclusive: 10 µM [inhibitor, partial curve, poor fit].

In the case of `COc1cccc2c1C(=O)c1c(O)c3c(c(O)c1C2=O)C[C@](O)(C(C)=O)C[C@H]3O[C@@H]1C[C@H](N)[C@H](O)[C@H](C)O1`, the activity change, negative = inhibition [1] is reported as active: -116%, the activity change, negative = inhibition [2] is reported as inconclusive: -131% [inhibitor] and the Potency [3] is reported as inconclusive: 12.6 µM [inhibitor, partial curve]. The Potency [13] was “inactive”, the Potency [4] was inconclusive: 3.98 µM [side channel, falling, partial curve] and the Potency [12] was active: 31.6 µM.

For `Clc1ccc2c(NC3CCC(N4CCCCC4)CC3)ccnc2c1` (centres undefined), the activity change, negative = inhibition [1] was inactive: -12.3% [at 7.69 µM], the activity change, negative = inhibition [2] was inconclusive: -53.6% [inhibitor] [at 7.69 µM] and the Potency [3] was inconclusive: 15.8 µM [activator, partial curve]. The Potency [13] was inconclusive: 3.98 µM [inhibitor, single point].

In the case of `C=CCN1CCc2c(cc(O)c(O)c2Br)[C@H](c2ccccc2)C1`, the activity change, negative = inhibition [1] is reported as inconclusive: -39.2% [inhibitor] [at 38 µM], the activity change, negative = inhibition [2] is reported as inconclusive: -35.2% [inhibitor] [at 38 µM] and the Potency [3] is reported as inconclusive: 15.8 µM [inhibitor, partial curve, poor fit]. The activity change, negative = inhibition [5] was inconclusive: -33.8%, the Potency [4] was inconclusive: 3.16 µM [inhibitor, partial curve] and the Potency [14] was inconclusive: 10 µM [inhibitor, partial curve]. For the same compound, the Potency [7] was inconclusive: 17.8 µM [inhibitor, partial curve, poor fit] and the Potency [8] was inconclusive: 11.2 µM [inhibitor, partial curve, poor fit].

For `OC[C@@H]1O[C@@H](n2cnc3c(NCCc4ccccc4)ncnc32)[C@@H](O)[C@H]1O`, the activity change, negative = inhibition [1] was inactive: -4.22% [at 38 µM], the activity change, negative = inhibition [2] was inconclusive: -55.3% [inhibitor] [at 38 µM] and the Potency [9] was “inactive”. The Potency [13] was “inactive” and the activation [4] was inconclusive: -38.5%.

With `CN(C)c1ncc2nc(-c3ccccc3)c(=O)n(CCc3ccccc3)c2n1` the activity change, negative = inhibition [1] was inconclusive: 138% [activator] [at 7.69 µM], the activity change, negative = inhibition [2] was inconclusive: 182% [activator] [at 7.69 µM] and the Potency [3] was inconclusive: 0.631 µM [activator, full curve]. For the same compound, the Potency [4] was active: 3.16 µM and the Potency [12] was “inactive”.
